# Results are given in words; binding and its absence hold for the method and conditions named. Some results given as binding are weak or reduced against the parent protein; the word gives no strength. For some of these results: Where a sequence is shown, tags or fusion partners need not be part of it.
# T1: Rps2(10–28)-G4BD (S. cerevisiae) (UniProt P25443)
# T1 sequence: KRGGFGGRNRGRPNRRGPR
# T2: Rps2(1–22)-G4BD (S. cerevisiae) (UniProt P25443)
# T2 sequence: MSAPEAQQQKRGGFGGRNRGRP
# T3: Rps2, the 28 N-terminal residues, G4BD fusion (S. cerevisiae) (UniProt P25443)
# T3 sequence: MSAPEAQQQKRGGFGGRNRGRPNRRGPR
# T4: Rps2, the 33 N-terminal residues, G4BD fusion (S. cerevisiae) (UniProt P25443)
# T4 sequence: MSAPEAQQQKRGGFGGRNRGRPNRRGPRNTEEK
# T5: Rps2-G4BD (S. cerevisiae) (UniProt P25443)
# T5 sequence: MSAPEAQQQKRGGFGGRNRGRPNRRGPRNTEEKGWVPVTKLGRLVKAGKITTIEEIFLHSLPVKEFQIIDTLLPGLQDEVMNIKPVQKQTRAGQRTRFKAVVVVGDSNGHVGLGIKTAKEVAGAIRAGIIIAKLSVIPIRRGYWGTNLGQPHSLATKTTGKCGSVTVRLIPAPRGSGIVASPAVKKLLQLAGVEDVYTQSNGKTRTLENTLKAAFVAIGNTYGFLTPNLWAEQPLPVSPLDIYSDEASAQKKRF
# T6: G4BD-Rps2 (S. cerevisiae), P25443
# T6 chain: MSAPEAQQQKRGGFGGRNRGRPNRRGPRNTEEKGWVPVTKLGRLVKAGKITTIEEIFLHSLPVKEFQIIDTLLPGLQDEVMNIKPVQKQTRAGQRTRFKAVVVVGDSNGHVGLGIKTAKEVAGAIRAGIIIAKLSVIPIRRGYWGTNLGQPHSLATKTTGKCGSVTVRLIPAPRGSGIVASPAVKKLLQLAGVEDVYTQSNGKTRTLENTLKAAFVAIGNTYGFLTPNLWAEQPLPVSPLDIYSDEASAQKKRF
# T7: Rps2-G4BD (S. cerevisiae), P25443
# T7 chain: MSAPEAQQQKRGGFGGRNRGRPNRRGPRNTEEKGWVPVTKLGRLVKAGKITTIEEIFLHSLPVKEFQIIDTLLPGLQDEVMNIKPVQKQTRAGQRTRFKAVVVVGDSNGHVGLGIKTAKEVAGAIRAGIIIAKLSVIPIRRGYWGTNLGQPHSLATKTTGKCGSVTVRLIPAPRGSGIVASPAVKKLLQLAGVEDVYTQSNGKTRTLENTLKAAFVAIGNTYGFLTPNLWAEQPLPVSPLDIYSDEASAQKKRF
# B1: full-length Tsr4-G4AD (protein, UniProt P25040 1-408)
# chain: MSKIEELPPSDTDDHSYSSKPGDVFLAFVDAPVKETDDILVEDSFIGGEPKWLHPDSEPPAELLKCGACKSADNMKLLLQAFSPLDDEQMSAIQQRLGINNMSYINPQDDRVLYVFLCTECQRKGNSVRCIRGVKKNKNVDSLSEKMASTSLEKDFQINPFDLSNNSDSKCNAFSSNPFGGANANPFGADSINSNISQSKDEGKKKESATVSAKTARKLHDLQKDKEYDGNKCFKSCLLYVEEETFKNKKPAHLQLPKNLKIDKEALDLTGDEDLEKDPIKLDPRTEKLSKFLDDDTFQKFQEVVGYNPLQVLRYDLGGKPLLYAETKVDILSTVPRPGYNPSSQRIFEMQLMPKMIFDLEEVVSVDNGMEWGTILVFTDVENYMPEFDEHGVGYVEECVKVQWESRT
# B2: full-length Pse1-G4AD, P32337 1-1089 (protein)
# chain: MSALPEEVNRTLLQIVQAFASPDNQIRSVAEKALSEEWITENNIEYLLTFLAEQAAFSQDTTVAALSAVLFRKLALKAPPSSKLMIMSKNITHIRKEVLAQIRSSLLKGFLSERADSIRHKLSDAIAECVQDDLPAWPELLQALIESLKSGNPNFRESSFRILTTVPYLITAVDINSILPIFQSGFTDASDNVKIAAVTAFVGYFKQLPKSEWSKLGILLPSLLNSLPRFLDDGKDDALASVFESLIELVELAPKLFKDMFDQIIQFTDMVIKNKDLEPPARTTALELLTVFSENAPQMCKSNQNYGQTLVMVTLIMMTEVSIDDDDAAEWIESDDTDDEEEVTYDHARQALDRVALKLGGEYLAAPLFQYLQQMITSTEWRERFAAMMALSSAAEGCADVLIGEIPKILDMVIPLINDPHPRVQYGCCNVLGQISTDFSPFIQRTAHDRILPALISKLTSECTSRVQTHAAAALVNFSEFASKDILEPYLDSLLTNLLVLLQSNKLYVQEQALTTIAFIAEAAKNKFIKYYDTLMPLLLNVLKVNNKDNSVLKGKCMECATLIGFAVGKEKFHEHSQELISILVALQNSDIDEDDALRSYLEQSWSRICRILGDDFVPLLPIVIPPLLITAKATQDVGLIEEEEAANFQQYPDWDVVQVQGKHIAIHTSVLDDKVSAMELLQSYATLLRGQFAVYVKEVMEEIALPSLDFYLHDGVRAAGATLIPILLSCLLAATGTQNEELVLLWHKASSKLIGGLMSEPMPEITQVYHNSLVNGIKVMGDNCLSEDQLAAFTKGVSANLTDTYERMQDRHGDGDEYNENIDEEEDFTDEDLLDEINKSIAAVLKTTNGHYLKNLENIWPMINTFLLDNEPILVIFALVVIGDLIQYGGEQTASMKNAFIPKVTECLISPDARIRQAASYIIGVCAQYAPSTYADVCIPTLDTLVQIVDFPGSKLEENRSSTENASAAIAKILYAYNSNIPNVDTYTANWFKTLPTITDKEAASFNYQFLSQLIENNSPIVCAQSNISAVVDSVIQALNERSLTEREGQTVISSVKKLLGFLPSSDAMAIFNRYPADIMEKVHKWFA
# How the values were obtained:
# [1] = molecular target: T1, Rps2(10–28)-G4BD (S. cerevisiae); assay: two-hybrid; Yeast strain PJ69-4A; Rps2 variants C-terminally fused to the Gal4 DNA-binding domain, full-length Tsr4 C-terminally fused to the Gal4 activation domain, CEN low-copy plasmids; growth on -HLT (weak) and -ALT (strong), 3 days at 30 °C
# [2] = molecular target: T2, Rps2(1–22)-G4BD (S. cerevisiae); assay: as above
# [3] = molecular target: T3, Rps2, the 28 N-terminal residues, G4BD fusion (S. cerevisiae); assay: as above
# [4] = molecular target: T4, Rps2, the 33 N-terminal residues, G4BD fusion (S. cerevisiae); assay: as above
# [5] = molecular target: T5, Rps2-G4BD (S. cerevisiae); assay: as above
# [6] = molecular target: T6, G4BD-Rps2 (S. cerevisiae), P25443; assay: two-hybrid; Yeast strain PJ69-4A; Rps2 variants N- or C-terminally fused to the Gal4 DNA-binding domain, Pse1 or Pse1.302C C-terminally fused to the Gal4 activation domain, 2µ high-copy plasmids; growth on -HLT (weak) and -ALT (strong), 3 days at 30 °C; settings: remark: other sources report otherwise
# [7] = molecular target: T7, Rps2-G4BD (S. cerevisiae), P25443; assay: as above; settings: remark: other sources report otherwise
Binder,binding [1],binding [2],binding [3],binding [4],binding [5],binding [6],binding [7]
B1,binds,binds weakly,binds,binds,binds,,
B2,,,,,,no binding,no binding
